In all, about 360,000 compounds went through this assay and about 7,500 (2.1%) were called active. Inconclusive means that the source gave no clear call. Such entries were picked first, then a sample of the others. The call rests on the fitted dose curve; in most records, active means well fitted cell-killing curve with a large enough effect; inconclusive means small, poorly fitted or top-dose-only effect, or effect the other way, or another doubt; inactive means no such curve, though single readings can be large or run the other way. Potencies of inconclusive entries are left out as doubtful fits.
test: qHTS for induction of synthetic lethality in tumor cells producing 2HG: qHTS for the HT-1080-IDH1KD cell line; conditions: HT-1080 IDH1 knockdown viability, ATP luminescence, 48 h; activity, negative = toxicity: at 46.1 µM (top of the series) unless noted;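 on activity, negative = toxicity: 0% = DMSO wells and -100% = cell-free medium wells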
How it was run: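 Knockdown cells (IDH1KD HT-1080) received compounds 2 h after plating at 750 cells/well and were kept 48 h at 37 °C in 5% FBS RPMI. A CellTiter-Glo luminescence read gave % activity for curve fitting.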
Potency means the concentration at half of the fitted maximal effect; tags describe the fitted curve by direction and shape.

Row | Compound | Potency | activity, negative = toxicity
1 | CCCCOc1cccc(-c2cc(C(=O)NNC(=S)NCC)c3ccccc3n2)c1 | inconclusive [cytotoxic, single point] | –
2 | COc1ccc(C)cc1NC(=S)NNC(=O)c1ccccc1Cl | inconclusive [cytotoxic, full curve] | –
3 | Cc1ccc(S(=O)(=O)/N=C(\CCl)N2CCOCC2)cc1 | inconclusive [cytotoxic, partial curve] | –
4 | O=C(Nc1ccn(Cc2ccccc2F)n1)c1ccc(COc2ccccc2Cl)cc1 | inconclusive [cytotoxic, partial curve] | –
5 | O=C(COC(=O)c1ccccc1)NC1CCCCCC1 | – | inactive: -2.39%
6 | COc1cc2ccccc2cc1C(=O)N(CCN(C)C)c1nc2ccc(C)cc2s1 | active: 16.4 µM | –
7 | CCOC(=O)c1cnc2c(C)c(Cl)ccc2c1NCCCN1CCOCC1 | – | inactive: 8.4%
8 | O=C(NCc1ccccc1)c1ncn[nH]1 | – | inconclusive: 33.7%
9 | O=C(CCC(=O)Nc1ccc(F)cc1)N/N=C/c1cccc(Br)c1 | inconclusive [cytotoxic, single point] | –
10 | CC1CCCC(C)N1CCCNC(=O)c1cc2c(s1)-c1ccccc1OC2 (centres undefined) | active: 20.6 µM | –
11 | Cc1cc(C)c2nc(N(CCN(C)C)C(=O)/C=C/c3cccs3)sc2c1 | – | inconclusive: -0.74% [cytotoxic]
12 | COc1ccc(N2CCN(S(=O)(=O)c3ccc4c(c3)NC(=O)C(C)S4)CC2)cc1 (centres undefined) | inconclusive [cytotoxic, single point] | –
13 | O=C(CC1Sc2ccccc2NC1=O)NNc1ccc(F)cc1 (centres undefined) | active: 7.31 µM | –
14 | Cc1ccc2nc(-c3ccncc3)cc(C(=O)NCCc3ccc(F)cc3)c2c1 | – | inactive: -7.08%
15 | Clc1ccc(/C=C/c2nc3ccccc3[nH]2)c(Cl)c1 | inconclusive [cytotoxic, single point] | –
16 | CC(C)(C)Cc1c(-c2ccc(Br)cc2)nc2ccc(Cl)cn12 | inconclusive [cytotoxic, single point] | –
17 | COc1ccc(-c2ccc(N(C)C)cc2)cc1[C@H]1[C@@H]2C=CCC[C@@]2(C)C(=O)N1Cc1ccccc1 | inconclusive [cytotoxic, partial curve, poor fit] | –
18 | O=C(CSc1nc2ccccc2c(=O)n1CCCN1CCOCC1)Nc1cccc(S(=O)(=O)N2CCCCCC2)c1 | inconclusive [cytotoxic, single point] | –
19 | Nc1nc(N)c(N=Nc2ccc(S(N)(=O)=O)cc2)c(=O)[nH]1 | – | inactive: 0.274%
20 | COc1cc(C(=O)Nc2cc(-c3ccccc3)[nH]n2)cc(OC)c1OC | inconclusive [cytotoxic, single point] | –
21 | COc1ccc(Nc2nc(-c3cccs3)nc3ccccc23)cc1 | inconclusive [cytotoxic, partial curve] | –
22 | COc1cccc(N=c2oc3ccc(OC)cc3cc2-c2nc3ccccc3[nH]2)c1 | inconclusive [cytotoxic, single point] | –

Row | Compound | Potency | activity, negative = toxicity
23 | Cc1ccccc1CC1(CO)CCCN(Cc2nc(-c3cccs3)oc2C)C1 (centres undefined) | inconclusive [cytotoxic, single point] | –
24 | Cc1ccc(NC(=O)COCC(=O)Nc2ccc(C)cc2)cc1 | – | inactive: 0.798%
25 | CCOc1cc(N2CCOCC2)c(OCC)cc1NC(=O)CSc1nnc(N)s1 | – | inactive: 3.99%
26 | CN(C)c1ncnc2c1ncn2[C@H]1CN(C2CCCC2)C[C@@H](CO)O1 | – | inactive: 1.11%
27 | CCCCn1nnc(NC(=O)c2ccc(-c3ccccc3)cc2)n1 | inconclusive [cytotoxic, partial curve] | –
28 | C[C@@H]1CN([C@H](C)CO)C(=O)c2cc(NC(=O)Nc3ccc(F)cc3)ccc2O[C@H]1CN(C)C(=O)Nc1ccc(C(F)(F)F)cc1 | inconclusive [cytotoxic, single point] | –
29 | CN1CCN(CC(O)COC(c2ccc(Cl)cc2)c2ccc(Cl)cc2)CC1 (centres undefined) | inconclusive [cytotoxic, single point] | –
30 | Cc1[nH]c2ccccc2c1C(=O)C(=O)N1CCN(c2ccccc2Cl)CC1 | inconclusive [cytotoxic, single point] | –
31 | COc1ccc(CCn2c(NN)nc3c2c(=O)[nH]c(=O)n3C)cc1 | inconclusive [cytotoxic, single point] | –
32 | COc1ccccc1CN(C)C(=O)CN1CCN(C(=O)c2cccs2)CC1 | – | inactive: -3.15%
33 | Cc1cc2oc(=O)cc(C)c2cc1NC(=O)CCl | inconclusive [cytotoxic, single point] | –
34 | O=C(Nc1cccc(OC(F)(F)F)c1)c1cccc2c(-c3cccnc3)coc12 | inconclusive [cytotoxic, partial curve, poor fit] | –
35 | CC12CCC(=O)C=C1CCC1C2C(=O)CC2(C)C1CCC2(O)C(=O)CO (centres undefined) | – | inactive: 0.129%
36 | COc1ccc(NC(=S)N(CCCN2CCCC2)Cc2cccn2Cc2ccc(Cl)cc2)cc1Cl | inconclusive [cytotoxic, single point] | –
37 | Cc1ccc(OCC(=O)N(Cc2ccc(N(C)C)cc2)C2CCS(=O)(=O)C2)cc1 (centres undefined) | – | inactive: 10.9%
38 | COc1ccc(-c2cc(C(=O)N/N=C/c3sccc3C)c3ccccc3n2)c(OC)c1 | inconclusive [cytotoxic, full curve] | –
39 | C[C@H](O)[C@@H]1CN2CCc3c([nH]c4ccccc34)[C@@H]2C[C@@H]1N(C)C(=O)OCc1ccccc1 | inconclusive [cytotoxic, single point] | –
40 | NC(c1csc(NC(=O)Nc2cccc(Cl)c2)n1)C1CCCCC1 (centres undefined) | active: 18.4 µM | –
41 | CCOc1ncccc1C(=O)N=C1SCCN1C(=O)c1cccnc1OCC | – | inactive: 12.2%
42 | Cn1c(Oc2ccc(Cl)cc2)c(C=O)c2ccccc21 | inconclusive [cytotoxic, partial curve, poor fit] | –
43 | Cc1cc(C)c(NC(=O)C[N+](C)(C)CC(O)COc2cccc3ccccc23)c(C)c1 (centres undefined) | inconclusive [cytotoxic, single point] | –
44 | Cc1ccccc1Cn1c(C)c(C(=O)NCc2ccc(Cl)c(Cl)c2)sc1=O | inconclusive [cytotoxic, single point] | –
